Viability index data for 35 compounds are collected here from the supplement of paper PMC4723716.

± gives the uncertainty stated by the source. The full ranking holds about 9,900 compounds; the median of “viability index relative to DMSO control” is about 1, and the lowest 2% start at about 0.85. This is one part of the list.

For the assay, the system named is Plasmodium falciparum NF54 stage V gametocytes. Briefly: viability index relative to DMSO control (fraction); higher = less gametocyte killing. The conditions noted are these: 2.5 µM, incubation time: 72 h. An outline of the steps: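 In 1,536-well plates, 10 µl of serum-free medium holding P. falciparum NF54 stage V gametocytes (0.75% gametocytemia, 1.25% hematocrit) received compound at 2.5 µM for 72 hr at 37°C in low oxygen. After one to two hours with 3 µl of 2.5 µM MitoTracker Red CMXRos containing 0.13% saponin, red particles of 20–70 µm2 were counted in a single field per well. Viability index is reported as the particle count over the plate mean of wells treated with solvent only.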

The mark [1] stands for this setting: library set: Broad Institute DOS.

Take `Cc1ccc(S(=O)(=O)Nc2ccc3c(c2)CC(=O)N([C@@H](C)CO)C[C@@H](C)[C@H](CN(C)S(=O)(=O)c2ccccc2)O3)cc1`: the viability index under setting [1] was determined as 0.912 ± 0.028. Still for that read-out and setting: in the case of `COc1cccc(C#Cc2ccc3c(c2)O[C@@H](CN(C)C(=O)CN2CCOCC2)[C@H](C)CN([C@@H](C)CO)S3(=O)=O)c1` it was 1.05 ± 0.057; in that of `CO[C@@H]1CN(C)C(=O)c2ccc(NS(=O)(=O)CC(F)(F)F)cc2OC[C@H](C)N(Cc2nccs2)C[C@H]1C`, 1.04 ± 0.076. Compound `CCS(=O)(=O)NCC[C@H]1CC[C@@H](NC(=O)Nc2cc(Cl)cc(Cl)c2)[C@@H](CO)O1` yielded a viability index under setting [1] of 1.15 ± 0.059. On the same count and under the same terms, in the case of `N#C[C@@H]1N[C@H](CO)[C@H]1c1ccc(C2=CCCC2)cc1` it was 1.12 ± 0.022; in that of `COc1cccc(C(=O)Nc2ccc3c(c2)C(=O)N(C)[C@@H]2CC[C@H](CC(=O)NCc4ccc(F)cc4)O[C@@H]2CO3)c1`, 1.1 ± 0.11. For the compound `CN1C(=O)c2cc(NC(=O)Cc3cccs3)ccc2OC[C@H]2O[C@@H](CC(=O)NCCCN3CCOCC3)CC[C@@H]21`, the viability index under setting [1] was found to be 1.17 ± 0.12. Still for that read-out and setting: in the case of `O=C(Nc1ccc(F)cc1)N1CC(=O)N2[C@@H](CO)[C@H](c3ccc(-c4cccc(F)c4)cc3)[C@@H]2C1` it was 1 ± 0.04; in that of `C[C@H]1CN([C@@H](C)CO)C(=O)c2cccc(N(C)C)c2O[C@H]1CN(C)Cc1ccncc1`, 0.992 ± 0.12. Same read-out and setting: in the case of `Cc1noc(C)c1S(=O)(=O)Nc1ccc2c(c1)CC(=O)N([C@H](C)CO)C[C@H](C)[C@H](CN(C)Cc1ccc(Oc3ccccc3)cc1)O2` it was 0.981 ± 0.01; in that of `Cc1noc(C)c1S(=O)(=O)N(C)C[C@@H]1OCc2cnnn2CCCC(=O)N([C@@H](C)CO)C[C@@H]1C`, 1.04 ± 0.027; in that of `C[C@H]1CN([C@@H](C)CO)C(=O)c2ccccc2-c2ccccc2CO[C@H]1CN(C)C(=O)Nc1cccc(C(F)(F)F)c1`, 0.974 ± 0.03. Take `C/C=C/c1ccc2c(c1)O[C@@H](CN(C)C(=O)Nc1ccc(OC)cc1)[C@H](C)CN([C@H](C)CO)S2(=O)=O`: under setting [1], the viability index was 1.12 ± 0.062. Regarding `C/C=C/c1ccc([C@H]2[C@@H](C#N)N(c3nc(CC)cs3)[C@@H]2CO)cc1`, the viability index under setting [1] stood at 1.01 ± 0.041. On the same count and under the same terms, in the case of `Cc1ccc(S(=O)(=O)Nc2ccc3c(c2)C(=O)N([C@H](C)CO)C[C@H](C)[C@H](CN(C)S(=O)(=O)c2cccs2)OCCCC[C@H](C)O3)cc1` it was 1.07 ± 0.14. Still for that read-out and setting: in the case of `COc1ccccc1NC(=O)N1CC(=O)N2[C@H](CO)[C@H](c3ccc(-c4cccc(C)c4)cc3)[C@@H]2C1` it was 1.03 ± 0.086; in that of `COc1ccc2c3c([nH]c2c1)[C@@H](CO)N(CC1CC1)C[C@]31CN(C1)C(=O)NC1CCCC1`, 1.05 ± 0.033; in that of `O=C(Cc1ccccc1)N1C[C@H]2[C@@H](c3ccccc31)[C@H](CO)N2S(=O)(=O)c1ccccc1`, 1.01 ± 0.057.

Compound `O=C(c1ccncc1)N1CC(=O)N2[C@H](C1)[C@@H](c1ccc(-c3cccnc3)cc1)[C@@H]2CO` yielded a viability index (library set: Broad Institute Blood Stage) of 0.891 ± 0.059. For the compound `COc1cccc(S(=O)(=O)N2C[C@@H](O)COC[C@@H]3O[C@H](CC(=O)NCCCN4CCOCC4)CC[C@H]32)c1`, the viability index under setting [1] is 1.05 ± 0.073. Still for that read-out and setting: in the case of `O=C(CC1CC1)N1CC2(C1)[C@H](c1ccccc1)[C@@H](CO)N2S(=O)(=O)Cc1ccccc1` it was 1.116 ± 0.0066. On the same count and under the same terms, in the case of `C[C@@H](NC(=O)C[C@@H]1CC[C@@H]2[C@@H](COc3ccc(NC(=O)C4CCOCC4)cc3C(=O)N2C)O1)c1ccccc1` it was 1.12 ± 0.1; in that of `O=C(Nc1ccc(F)cc1)N1C[C@H]2[C@@H](c3ccccc31)[C@@H](CO)N2C(=O)c1ccncc1`, 1.01 ± 0.08. Compound `CN(C)CCCNC(=O)[C@H]1[C@H](CO)[C@H]2Cn3c(ccc(-c4cccnc4)c3=O)[C@@H]1N2C(=O)CC1CC1` displayed a viability index under setting [1] of 1.06 ± 0.044. The same measure, in the same setting: in the case of `CC[C@@H]1C/C=C\C[C@H](c2ccccc2)NC(=O)CCC(=O)N1` it was 1.0995 ± 0.00043. Turning to `Cc1noc(C)c1S(=O)(=O)N(C)C[C@@H]1OCCCC[C@H](C)Oc2ccc(NS(=O)(=O)c3cn(C)cn3)cc2C(=O)N([C@H](C)CO)C[C@@H]1C`, under setting [1], the viability index is 1.128 ± 0.0057.

Compound `COc1ccc(CN2[C@H](CO)[C@@H]3c4ccccc4NC[C@@H]32)cc1` displayed a viability index under setting [1] of 0.972 ± 0.084. Consider `CCCNC(=O)[C@@H]1[C@@H](CO)[C@@H]2Cn3c(cccc3=O)[C@@H]2N1Cc1cccc(F)c1`, for which the viability index under setting [1] worked out at 1.05 ± 0.025. As for `COc1ccc2c3c([nH]c2c1)[C@H](CO)N(C[C@]31CN(C1)C(=O)Cc1cccnc1)S(C)(=O)=O`, the viability index under setting [1] is 1.08 ± 0.04. For `Cc1ccc(NC(=O)Nc2ccc3c(c2)C(=O)N(C)[C@H]2CC[C@H](CC(=O)NCC(F)(F)F)O[C@H]2CO3)cc1`, the viability index under setting [1] worked out at 1.11 ± 0.067. On the same count and under the same terms, in the case of `N#C[C@H]1[C@H](c2ccccc2-c2ccccc2F)[C@@H](CO)N1C(=O)c1cccc(F)c1` it was 1.09 ± 0.16; in that of `CCCNC(=O)N1C[C@@]2(C1)CN(Cc1ccc(F)cc1)[C@@H](CO)c1[nH]c3cc(OC)ccc3c21`, 1.08 ± 0.035. Consider `CCC(=O)NC[C@H]1[C@@H](c2ccc(-c3ccc(F)cc3)cc2)[C@@H](CO)N1C(=O)CC`, for which, under setting [1], the viability index turned out to be 0.964 ± 0.047. `CCS(=O)(=O)Nc1ccc2c(c1)C(=O)N(C)[C@H]1CC[C@@H](CC(=O)NCCCN3CCOCC3)O[C@H]1CO2`: the viability index under setting [1] amounted to 1.1 ± 0.13. As for `COc1ccc(NC(=O)N(C)C[C@H]2Oc3ccc(NC(=O)CCN4CCOCC4)cc3C(=O)N([C@H](C)CO)C[C@H]2C)cc1`, the viability index under setting [1] worked out at 0.931 ± 0.086.
